Assay results published in publication PMC9574860, “Chemical Toolkit for PARK7: Potent, Selective, and High-Throughput” (Journal of Medicinal Chemistry, 2022).
Hit rate of the full screen: of about 7,900 compounds, about 400 (5.1%) showed an effect of 50% or more. This is one part of the list.

target: Parkinson's disease protein 7 (PARK7/DJ1) (human, UniProt Q99497); assay: primary screen, percent inhibition; read as competition with a fluorescent probe by fluorescence polarization; higher = more effect of the substance; details: 100 µM
Sequence (Q99497 whole entry, looked up, the tested form may be a part): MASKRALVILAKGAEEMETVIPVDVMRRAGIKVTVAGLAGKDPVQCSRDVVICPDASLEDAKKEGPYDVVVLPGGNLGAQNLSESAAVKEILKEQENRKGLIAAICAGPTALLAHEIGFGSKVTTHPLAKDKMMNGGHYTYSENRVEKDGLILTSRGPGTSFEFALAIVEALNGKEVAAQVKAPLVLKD
Outline: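 Covalent fragments at 100 μM final were incubated 2 h with 0.2 μM PARK7, then 20 nM probe JYQ-107 added for a further 2 h. Fluorescence polarization read at 480/520 nm; relative FP loss versus reference controls gave remaining enzyme activity.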

| Structure (SMILES) | Inhibition % [%] |
| --- | --- |
| C=CC(=O)N[C@@H]1CCO[C@@H](c2cccs2)C1 (racemic) | 9.83 |
| CCC1CN(C(=O)CN2CCSC2=O)CCO1 (centres unmarked) | 0.338 |
| C=CC(=O)N1CCOc2c(C)cc(C)cc21 | 11.5 |
| C=CC(=O)N1CCC2(CCOCC2)CC1 | 5.66 |
| C=CC(=O)NC1CCN(c2ccccc2)C1 (centres unmarked) | 20.1 |
| Cc1ccc(-n2cc(SC(=O)N(C)C)cn2)cc1 | 6.2 |
| CC(Cc1cccs1)NC(=O)c1cccnc1S (centres unmarked) | 5.98 |
| C=CC(=O)N(Cc1ccccc1)c1cnn(C)c1 | 29.9 |
| C=CC(=O)Nc1ccc2c(c1)N(C(C)=O)CCS2 | 11.2 |
| COc1ccc(S(=O)(=O)n2nc(C)cc2C)c(C)c1C | -0.469 |
| CCOC(=O)c1ccc(NC(=O)CCl)cc1 | 56.5 |
| N#Cc1nc2cc(N)ccc2s1 | 55.6 |
| C=CC(=O)N1CCCC(c2nncn2C)C1 (centres unmarked) | 20.6 |
| Sc1nccn2ccnc12 | 5.79 |
| COc1ccc(C(C)C)cc1S(=O)(=O)n1nc(C)cc1C | 3.48 |
| O=S(=O)(C=Cc1ccccc1)NCc1ccco1 | 14.6 |
| CCc1nc(Cl)cc(C#N)n1 | 7.01 |
| C=CC(=O)N1CC(C2CS(=O)(=O)C2)C1 | 9.56 |
| N#Cc1cccc(Oc2ccc(CCO)cc2)n1 | 24.6 |
| C=CC(=O)NCC(c1ccsc1)N(C)C (centres unmarked) | 2.98 |
| O=C(O)CCn1nc(-c2cccs2)oc1=O | 3.57 |

| Structure (SMILES) | Inhibition % [%] |
| --- | --- |
| C=CC(=O)NC1CCCC12CCOCC2 (centres unmarked) | 10.3 |
| CN(C)C(=O)Sc1cnn(-c2ccccc2F)c1 | 6.74 |
| CC(C)c1ccccc1OCC1CO1 (centres unmarked) | -4.39 |
| CC(C)[C@H]1OCC[C@@H]1CNc1cccc(C#N)n1 | 5.45 |
| O=C1CNC(=O)N1CCCCl | 9.1 |
| C=CC(=O)N1CCOCC1CC (centres unmarked) | 7.47 |
| CC(C)Cn1c(N)c(C(=O)CCl)c(=O)[nH]c1=O | 16.4 |
| Cc1cc(NC(=O)CCl)n(-c2ccccc2F)n1.Cl | 23.2 |
| N#Cc1ccc(NC(=O)CCl)cc1Cl | 29.1 |
| O=C(CCl)N(Cc1ccco1)C1=CCCCC1 | 23.3 |
| N#CC(C(N)=O)=C1CCCC1 | 8.77 |
| Cc1cc(S(=O)(=O)n2ccnc2)c(Cl)cc1Cl | 7.16 |
| O=C(CCCCl)N1CCCCC1 | 2.86 |
| CC(C)C(=O)Nc1ccc(CNC(=O)n2ccnc2)cc1 | 0.0136 |
| OB(O)c1cc(F)ccc1OCc1ccccn1 | 6.52 |
| C=CC(=O)NC1(c2nc(C)cs2)CCCC1 | 5.93 |
| C=CC(=O)N1CCCc2c(NC(C)=O)cccc21 | 13.5 |
| O=C1C(NC(=O)C2(O)CCC2)CN1c1ccccc1 (centres unmarked) | 6.49 |
| C=CC(=O)NCc1noc2c1CCCC2 | 4.47 |
| C=CC(=O)NC1(c2cccc(OC)c2)CC1 | 2.67 |
| CN(C)C(=O)C(C)(C)NS(=O)(=O)C=Cc1ccccc1 | 6.17 |

| Structure (SMILES) | Inhibition % [%] |
| --- | --- |
| C=CC(=O)N1CCC(c2ccc(OC)cc2)C1 (centres unmarked) | 6.39 |
| CC1(C)OB(c2cccc3occc23)OC1(C)C | 10.2 |
| C=CC(=O)NCC1CCN(C)C1c1cccs1 (centres unmarked) | 8.73 |
| C=CC(=O)NCC1CCC(=C)CC1 | 7.7 |
| CCn1c(S)nc2scc(C)c2c1=O | 3.15 |
| CN(C)Cc1ccc(B(O)O)cc1F.Cl | 5.41 |
| Cc1ccc(C#N)nc1NCC1CCSCC1 | 3.23 |
| CCc1nc(C#N)c(N2CCN(c3ccccc3)CC2)o1 | 2.75 |
| c1ccc2c(c1)ncn2CCC1OCCO1 | 1.92 |
| C=CC(=O)Nc1ccccc1C1CCC(=O)N1 (centres unmarked) | 7.72 |
| Cc1ccc(Oc2ccc(C#N)nn2)cc1F | 11.7 |
| COc1ccnc(C#N)n1 | 8.62 |
| COC(OC)C1CCCCC1=O (centres unmarked) | 2.2 |
| O=C(CCl)NCCCc1ccccc1 | 8.89 |
| CCN(CC)S(=O)(=O)c1ccc(NC(=O)CCl)cc1 | 90.5 |
| C=CC(=O)NC(c1nccs1)C1CC1 (centres unmarked) | 12.2 |
| Cc1[nH]c(C#N)cc1C(=O)O | 6.7 |
| N#Cc1cccc(-n2ccnc2)n1 | 9.34 |
| c1cc2c(cc1C1CO1)OCO2 (centres unmarked) | -1.48 |
| N#CN(CCn1cncn1)c1ccccc1 | 6.47 |
| O=C(CC1C=CS(=O)(=O)C1)NC1CCOc2ccccc21 (centres unmarked) | 8.51 |

| Structure (SMILES) | Inhibition % [%] |
| --- | --- |
| CN(CCCl)Cc1ccc(F)cc1 | 7.18 |
| O=C(CCl)Nc1ccc2[nH]c(C(F)(F)F)nc2c1 | 45 |
| C=CC(=O)N1CCCc2sccc2C1 | 7.37 |
| Cc1cc(Cl)c(Cl)cc1S(=O)(=O)n1cccn1 | -3.64 |
| Cc1cc(C)nc(S)n1 | 17.2 |
| C=CC(=O)N1CCC(c2cccnc2OC)C1 (centres unmarked) | 10.3 |
| CC1(C)OB(c2cccc(C(F)C(F)(F)F)c2)OC1(C)C (centres unmarked) | -2.51 |
| Cc1ccc(CN2CCCCC2C2OCCO2)o1 (centres unmarked) | 7.93 |
| Cc1ccc(N2C(=O)CN=C2S)c(C)c1 | 9.16 |
| O=C(CCCl)Nc1ccc(Cl)cc1 | 9.16 |
| CCc1cccc(C)c1NC(=O)CCl | 3.92 |
| O=C(O)Cc1ccc(NC(=O)CCl)cc1 | 43.8 |
| COc1cc(C=C(C#N)C(=O)NC(C)C)sn1 | 28.9 |
| N#Cc1cncc(N2CCCCC2C2CCC2)n1 (centres unmarked) | 15.3 |
| C=CC(=O)NC(C)C(=O)N1CCOCC1 (centres unmarked) | 11.8 |
| C=CC(=O)Nc1ccc(OC2CCN(C)CC2)nc1 | 11.8 |
| CCCC(NC(=O)CCl)c1ccccc1 (centres unmarked) | 14.5 |
| C1CNCC(C2OCCO2)C1 (centres unmarked) | 10.9 |
| Clc1cnc(C2OCCO2)s1 | 10.9 |
| C=CC(=O)NC1CCc2ccccc2CC1 | 5.66 |
